Measurements as given in the supplement of paper PMC12217912.
This is one part of the list. Sequences were assembled here from the parent chain. Inactive controls read about 0.05.

B1: TEV protease; numbered along this chain (parent)
chain: MGESLFKGPRDYNPISSSICHLTNESDGHTTSLYGIGFGPFIITNKHLFRRNNGTLVVQSLHGVFKVKDTTTLQQHLVDGRDMIIIRMPKDFPPFPQKLKFREPQREERICLVTTNFQTKSMSSMVSDTSCTFPSGDGIFWKHWIQTKDGQCGSPLVSTRDGFIVGIHSASNFTNTNNYFTSVPKNFMELLTNQEAQQWVSGWRLNADSVLWGGHKVFMVKPEEPFQPVKEATQL

Variants of: B1
Experiment: raw area under fraction-flipped curve 0-4 h after induction (AUC4h, not background-subtracted), DNA-recorder readout of cleavage of the substrate (dimensionless); higher = more cleavage of the substrate by the protease variant
Conditions: temperature: 34 °C; time window: 0-4 h after rhamnose induction
Protocol: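 In vivo DNA recorder in E. coli TOP10(DE3) ΔrhaA at 34 °C. Each TEVp single-site mutant (parent TEVp 0) is paired with a single-site variant of the 7-mer TEVs (canonical ENLYFQ|S). The substrate sits between flexible linkers in a Bxb1-sfGFP-TEVs-SsrA fusion, so cleavage stabilises Bxb1 and speeds flipping of a recombination array, read by NGS. The value is the raw area under the fraction-flipped curve over 0-4 h after rhamnose induction (AUC4h), with ≥20 reads per time point. It is not background-subtracted; inactive controls average about 0.047.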
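Further: Bxb1 expression induced with 0.2% (w/v) L-rhamnose at OD600 near 0.5, cultures sampled hourly, flipped fraction per protease–substrate barcode pair counted by paired-end Illumina sequencing.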

| Variant | area with substrate ENAYFQS | area with substrate ENCYFQS | area with substrate ENDYFQS | area with substrate ENEYFQS | area with substrate ENFYFQS | area with substrate ENGYFQS | area with substrate ENHYFQS | area with substrate ENIYFQS | area with substrate ENNYFQS | area with substrate ENQYFQS | area with substrate ENRYFQS | area with substrate ENSYFQS | area with substrate ENTYFQS | area with substrate ENVYFQS | area with substrate ENWYFQS | area with substrate ENKYFQS | area with substrate ENMYFQS | area with substrate ENPYFQS | area with substrate ENYYFQS |
| --- | --- | --- | --- | --- | --- | --- | --- | --- | --- | --- | --- | --- | --- | --- | --- | --- | --- | --- | --- |
| N177P | 0.0535 | 0.0693 | 0.0641 | 0.05 | 0.0651 | 0.0606 | 0.0596 | 0.0556 | 0.0607 | 0.0619 | 0.0601 | 0.0603 | 0.0679 | 0.0534 | 0.0581 | – | – | – | – |
| N177I | 0.0677 | 0.0848 | – | 0.0695 | 0.0715 | 0.063 | – | – | – | 0.0634 | 0.0755 | 0.0599 | 0.0645 | – | 0.0531 | – | – | – | – |
| N177C | 0.0633 | 0.0532 | 0.06 | – | – | 0.0601 | 0.065 | – | – | 0.0649 | 0.0536 | 0.0623 | – | 0.103 | 0.0057 | – | – | – | – |
| N178A | 0.0638 | – | – | 0.0581 | – | – | – | – | 0.0675 | – | 0.0458 | – | 0.0371 | – | 0.0708 | 0.0545 | – | – | – |
| S169I | 0.051 | 0.0453 | 0.0592 | 0.065 | 0.0538 | – | – | 0.059 | 0.0532 | – | 0.0617 | 0.0434 | 0.0613 | 0.051 | 0.0667 | 0.0515 | 0.0669 | 0.0692 | 0.0262 |
| S169D | 0.0557 | – | 0.0704 | 0.0568 | – | 0.0728 | 0.0646 | 0.057 | – | 0.0564 | 0.0611 | 0.0488 | 0.0631 | 0.0572 | 0.0473 | – | 0.0381 | 0.0782 | 0.0417 |
| A170T | 0.0666 | – | 0.0685 | 0.055 | – | – | – | – | – | – | – | 0.0694 | – | – | – | 0.0725 | – | – | – |
| Q197V | 0.0532 | 0.0604 | 0.0623 | 0.0654 | 0.0536 | 0.0718 | 0.0554 | 0.124 | 0.0821 | 0.062 | – | 0.0594 | 0.0615 | 0.0748 | 0.0048 | 0.0692 | 0.0839 | 0.0395 | 0.0491 |
| Q194H | 0.0493 | 0.0631 | – | 0.0598 | 0.0448 | 0.0575 | 0.0508 | 0.158 | 0.0533 | 0.0536 | 0.0498 | – | – | 0.0738 | 0.0488 | 0.0891 | 0.102 | – | 0.0813 |
| Q194N | 0.0402 | – | – | 0.0748 | 0.0637 | 0.0652 | 0.0368 | – | – | 0.0551 | – | 0.0536 | 0.064 | 0.0612 | – | 0.0553 | – | – | – |
| F173H | 0.055 | 0.0774 | 0.0672 | 0.0589 | 0.0653 | 0.0662 | 0.0564 | 0.0651 | 0.0617 | 0.0654 | 0.0653 | 0.0619 | 0.0689 | 0.0611 | 0.055 | 0.0723 | 0.0687 | 0.0453 | – |
| F173E | 0.0731 | 0.0602 | 0.0821 | 0.0594 | – | 0.0806 | – | 0.0893 | 0.063 | 0.0625 | – | 0.0817 | – | 0.062 | 0.0082 | – | – | – | – |
| F187D | 0.0605 | 0.0464 | 0.0651 | – | 0.0468 | 0.0562 | 0.0509 | 0.0599 | – | 0.0439 | – | 0.0534 | 0.0526 | 0.05 | 0.0056 | – | – | – | – |
| F187R | 0.0462 | 0.0624 | 0.0598 | 0.0535 | – | 0.0594 | – | – | 0.0566 | 0.0511 | – | 0.0558 | 0.0655 | 0.0527 | – | – | – | – | 0.0487 |
